Test results taken from patent US20170009278A1 (NAVINCI DIAGNOSTICS, published 2017).

Target: T1, HIF-1α (UniProt Q16665 1-826, limits assumed)
T1 construct: Endogenous protein in fixed cells, detected with mouse anti-HIF-1α (Abcam)
Assay: in situ prox-HCR on fixed DLD1 cells treated with CoCl2, two primary antibodies plus anti-mouse and anti-rabbit proximity probes

binding result: binds
B1: HIF-1b/ARNT (other, UniProt P27540 2-789, looked up)
chain: AATTANPEMTSDVPSLGPAIASGNSGPGIQGGGAIVQRAIKRRPGLDFDDDGEGNSKFLRCDDDQMSNDKERFARSDDEQSSADKERLARENHSEIERRRRNKMTAYITELSDMVPTCSALARKPDKLTILRMAVSHMKSLRGTGNTSTDGSYKPSFLTDQELKHLILEAADGFLFIVSCETGRVVYVSDSVTPVLNQPQSEWFGSTLYDQVHPDDVDKLREQLSTSENALTGRILDLKTGTVKKEGQQSSMRMCMGSRRSFICRMRCGSSSVDPVSVNRLSFVRNRCRNGLGSVKDGEPHFVVVHCTGYIKAWPPAGVSLPDDDPEAGQGSKFCLVAIGRLQVTSSPNCTDMSNVCQPTEFISRHNIEGIFTFVDHRCVATVGYQPQELLGKNIVEFCHPEDQQLLRDSFQQVVKLKGQVLSVMFRFRSKNQEWLWMRTSSFTFQNPYSDEIEYIICTNTNVKNSSQEPRPTLSNTIQRPQLGPTANLPLEMGSGQLAPRQQQQQTELDMVPGRDGLASYNHSQVVQPVTTTGPEHSKPLEKSDGLFAQDRDPRFSEIYHNINADQSKGISSSTVPATQQLFSQGNTFPPTPRPAENFRNSGLAPPVTIVQPSASAGQMLAQISRHSNPTQGATPTWTPTTRSGFSAQQVATQATAKTRTSQFGVGSFQTPSSFSSMSLPGAPTASPGAAAYPSLTNRGSNFAPETGQTAGQFQTRTAEGVGVWPQWQGQQPHHRSSSSEQHVQQPPAQQPGQPEVFQEMLSMLGDQSNSYNNEEFPDLTMFPPFSE
notes: Endogenous protein in fixed cells, detected with rabbit anti-HIF-1b (Santa Cruz)
